In the supplement of paper PMC11741623 one finds yeast fitness gain data, which are given here for 2 molecules.

To fix the notation:
B1: SCN3B, Q9NY72 (protein)
chain: MPAFNRLFPLASLVLIYWVSVCFPVCVEVPSETEAVQGNPMKLRCISCMKREEVEATTVVEWFYRPEGGKDFLIYEYRNGHQEVESPFQGRLQWNGSKDLQDVSITVLNVTLNDSGLYTCNVSREFEFEAHRPFVKTTRLIPLRVTEEAGEDFTSVVSEIMMYILLVFLTLWLLIEMIYCYRKVSKAEEAAQENASDYLAIPSENKENSAVPVEE
B2: SLC38A7, Q9NVC3 (protein)
chain: MAQVSINNDYSEWDLSTDAGERARLLQSPCVDTAPKSEWEASPGGLDRGTTSTLGAIFIVVNACLGAGLLNFPAAFSTAGGVAAGIALQMGMLVFIISGLVILAYCSQASNERTYQEVVWAVCGKLTGVLCEVAIAVYTFGTCIAFLIIIGDQQDKIIAVMAKEPEGASGPWYTDRKFTISLTAFLFILPLSIPREIGFQKYASFLSVVGTWYVTAIVIIKYIWPDKEMTPGNILTRPASWMAVFNAMPTICFGFQCHVSSVPVFNSMQQPEVKTWGGVVTAAMVIALAVYMGTGICGFLTFGAAVDPDVLLSYPSEDMAVAVARAFIILSVLTSYPILHFCGRAVVEGLWLRYQGVPVEEDVGRERRRRVLQTLVWFLLTLLLALFIPDIGKVISVIGGLAACFIFVFPGLCLIQAKLSEMEEVKPASWWVLVSYGVLLVTLGAFIFGQTTANAIFVDLLA

Some of the results follow. Interaction screen of human proteins with wild-type SARS-CoV-2 proteins by split-DHFR complementation in yeast, 1 µg/mL methotrexate. Value = fitness of the pair (three or more lineages) minus that of the viral protein without a human partner, on a scale set by negative (0) and fused positive (1) controls, mean of up to three cultures; higher = more likely to interact. Active = false discovery rate below 0.05 (one-sided t-test) in at least one culture. Nearly all pairs are not hits, and differences among them are mostly noise (correlation between cultures about 0.3); most hits were seen in one culture only. Human sequences are the Swiss-Prot entries looked up by gene name; the clone may be another isoform. NSP2 values were corrected by the authors for a growth advantage. Listed are human proteins with a hit and a random twelfth of the others.

For the first test, the target named is SARS-CoV-2 E. The test can be described thus: yeast fitness gain over the viral ORF with no human partner (scaled fitness); higher = more likely to interact. On the procedure: (§1)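 Split mouse DHFR complementation in pooled diploid yeast: human ORFeome clones carry one fragment and viral ORFs the other; barcoded lineages compete in 1 µg/mL methotrexate and fitness is read by barcode sequencing in up to three cultures.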
As to B1, the yeast fitness gain was inactive: -0.0149.
The same measure, in the same setting: with B2 the figure was inactive: -0.0194.

The target of a further test is SARS-CoV-2 N. The description is as above. As to the method:
as §1
Consider B1, for which the yeast fitness gain was inactive: 0.0807.
The same measure, in the same setting: next, B2: inactive: -0.121.

For the next test, the target named is SARS-CoV-2 NSP10. The test is described as above. As to the method: as §1
As to B1, the yeast fitness gain was inactive: -0.0938.
Still for that read-out and setting: next, B2: inactive: -0.0124.

Another test has as its target SARS-CoV-2 NSP12. The test is described as above. On the procedure:
as §1
Regarding B1, the yeast fitness gain is inactive: -0.229.
On the same count and under the same terms, next, B2: inactive: 0.0519.

A further test addresses SARS-CoV-2 NSP13. The test is described as above. On the procedure:
as §1
Turning to B1, the yeast fitness gain was inactive: -0.0395.
In the case of B2, the yeast fitness gain is inactive: -0.00476.

The target of another test is SARS-CoV-2 NSP2. Described as above. On the procedure:
as §1
Regarding B1, the yeast fitness gain is inactive: -0.187.
Same read-out and setting: with B2 the figure was inactive: -0.138.

A further test deals with SARS-CoV-2 NSP5. The description is as above. On the procedure: as §1
With B1, the yeast fitness gain was inactive: -0.133.
Same read-out and setting: next, B2: inactive: -0.0852.

A further test has as its target SARS-CoV-2 NSP6. Described as above. On the procedure: as §1
In the case of B1, the yeast fitness gain was inactive: -0.0358.
As to B2, the yeast fitness gain was inactive: 0.0981.

In the next test the target is SARS-CoV-2 NSP7. The test is described as above. As to the method: as §1
B1: the yeast fitness gain is inactive: -0.15.
The same measure, in the same setting: next, B2: inactive: 0.0516.

In a further test the target is SARS-CoV-2 NSP8. The description is as above. On the procedure:
as §1
Take B1: the yeast fitness gain is inactive: -0.0268.
With B2, the yeast fitness gain was inactive: -0.0995.

A further test concerns the target SARS-CoV-2 NSP9. The test is described as above. On the procedure: as §1
Turning to B1, the yeast fitness gain was inactive: -0.0362.
As for B2, the yeast fitness gain was inactive: 0.104.

The target of another test is SARS-CoV-2 ORF10. Described as above. On the procedure:
as §1
For B1, the yeast fitness gain was inactive: 0.00347.
The same measure, in the same setting: with B2 the figure was inactive: -0.00729.

In a further test the target is SARS-CoV-2 ORF3A. The test is described as above. On the procedure:
as §1
B1: the yeast fitness gain is inactive: 0.0639.
The same measure, in the same setting: next, B2: inactive: 0.0177.

In another test the target is SARS-CoV-2 ORF3B. The description is as above. As to the method:
as §1
Regarding B1, the yeast fitness gain was inactive: -0.0265.
Regarding B2, the yeast fitness gain is inactive: -0.0168.

The target in a further test is SARS-CoV-2 ORF6. Described as above. As to the method: as §1
B1: the yeast fitness gain was inactive: -0.0178.
Regarding B2, the yeast fitness gain was inactive: 0.0219.

The next test deals with SARS-CoV-2 ORF7A. The test is described as above. As to the method: as §1
For the molecule B1, the yeast fitness gain was inactive: 0.274.
Still for that read-out and setting: with B2 the figure was inactive: -0.00425.

The target of a further test is SARS-CoV-2 ORF7B. The test is described as above. On the procedure:
as §1
Turning to B1, the yeast fitness gain is inactive: 0.155.
As to B2, the yeast fitness gain was inactive: 0.0247.

In the next test the target is SARS-CoV-2 ORF8. The description is as above. On the procedure: as §1
As for B1, the yeast fitness gain was inactive: 0.12.
The same measure, in the same setting: with B2 the figure was inactive: 0.0122.

Another test addresses SARS-CoV-2 ORF9B. The test is described as above. On the procedure: as §1
Regarding B1, the yeast fitness gain is inactive: -0.00471.
As to B2, the yeast fitness gain was inactive: 0.00449.

The target of the next test is SARS-CoV-2 ORF9Bwu (the 73-codon ORF). The test is described as above. On the procedure:
as §1
As for B1, the yeast fitness gain was inactive: 0.0331.
Take B2: the yeast fitness gain was inactive: 0.0535.

For the next test, the target named is SARS-CoV-2 S. The description is as above. On the procedure: as §1
Regarding B1, the yeast fitness gain was inactive: -0.102.
Same read-out and setting: next, B2: inactive: -0.0575.

A further test concerns the target SARS-CoV-2 M. The test is described as above. As to the method: as §1
Regarding B2, the yeast fitness gain was inactive: 0.024.

The next test addresses SARS-CoV-2 NSP1. The description is as above. As to the method: as §1
As to B2, the yeast fitness gain is inactive: 0.0552.

The target of another test is SARS-CoV-2 NSP15. The description is as above. On the procedure:
as §1
B2: the yeast fitness gain was inactive: -0.0118.

The target of a further test is SARS-CoV-2 NSP16. Described as above. On the procedure: as §1
B2: the yeast fitness gain was inactive: 0.0367.

For the next test, the target named is SARS-CoV-2 NSP4. The test is described as above. As to the method: as §1
On to B2, for which the yeast fitness gain was inactive: 0.0424.
